# Test results taken from paper PMC4393021.
# By UniProt entry, the sequences of proteins in these tests, tags left out.
# UniProt P12814: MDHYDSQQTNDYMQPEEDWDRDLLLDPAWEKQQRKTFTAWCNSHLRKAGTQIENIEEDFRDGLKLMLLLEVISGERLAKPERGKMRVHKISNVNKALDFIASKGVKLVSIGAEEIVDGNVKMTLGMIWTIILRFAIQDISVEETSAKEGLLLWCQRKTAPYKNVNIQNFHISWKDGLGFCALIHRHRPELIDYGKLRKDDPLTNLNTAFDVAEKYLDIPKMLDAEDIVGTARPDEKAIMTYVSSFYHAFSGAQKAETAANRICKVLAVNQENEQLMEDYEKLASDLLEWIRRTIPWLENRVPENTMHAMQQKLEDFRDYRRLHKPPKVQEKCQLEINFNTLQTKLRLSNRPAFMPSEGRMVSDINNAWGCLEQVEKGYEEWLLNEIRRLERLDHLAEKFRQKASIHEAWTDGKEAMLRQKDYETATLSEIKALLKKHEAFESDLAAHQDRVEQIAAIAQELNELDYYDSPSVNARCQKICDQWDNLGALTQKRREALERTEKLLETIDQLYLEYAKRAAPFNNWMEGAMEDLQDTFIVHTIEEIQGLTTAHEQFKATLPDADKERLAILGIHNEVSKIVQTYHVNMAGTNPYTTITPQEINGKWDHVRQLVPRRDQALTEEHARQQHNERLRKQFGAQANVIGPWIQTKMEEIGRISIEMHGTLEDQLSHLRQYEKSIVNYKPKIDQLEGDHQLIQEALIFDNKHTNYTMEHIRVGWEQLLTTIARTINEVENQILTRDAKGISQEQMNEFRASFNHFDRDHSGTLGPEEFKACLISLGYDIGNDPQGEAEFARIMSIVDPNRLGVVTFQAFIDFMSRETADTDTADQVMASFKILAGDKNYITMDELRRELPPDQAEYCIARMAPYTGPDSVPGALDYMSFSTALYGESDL
# UniProt O43707: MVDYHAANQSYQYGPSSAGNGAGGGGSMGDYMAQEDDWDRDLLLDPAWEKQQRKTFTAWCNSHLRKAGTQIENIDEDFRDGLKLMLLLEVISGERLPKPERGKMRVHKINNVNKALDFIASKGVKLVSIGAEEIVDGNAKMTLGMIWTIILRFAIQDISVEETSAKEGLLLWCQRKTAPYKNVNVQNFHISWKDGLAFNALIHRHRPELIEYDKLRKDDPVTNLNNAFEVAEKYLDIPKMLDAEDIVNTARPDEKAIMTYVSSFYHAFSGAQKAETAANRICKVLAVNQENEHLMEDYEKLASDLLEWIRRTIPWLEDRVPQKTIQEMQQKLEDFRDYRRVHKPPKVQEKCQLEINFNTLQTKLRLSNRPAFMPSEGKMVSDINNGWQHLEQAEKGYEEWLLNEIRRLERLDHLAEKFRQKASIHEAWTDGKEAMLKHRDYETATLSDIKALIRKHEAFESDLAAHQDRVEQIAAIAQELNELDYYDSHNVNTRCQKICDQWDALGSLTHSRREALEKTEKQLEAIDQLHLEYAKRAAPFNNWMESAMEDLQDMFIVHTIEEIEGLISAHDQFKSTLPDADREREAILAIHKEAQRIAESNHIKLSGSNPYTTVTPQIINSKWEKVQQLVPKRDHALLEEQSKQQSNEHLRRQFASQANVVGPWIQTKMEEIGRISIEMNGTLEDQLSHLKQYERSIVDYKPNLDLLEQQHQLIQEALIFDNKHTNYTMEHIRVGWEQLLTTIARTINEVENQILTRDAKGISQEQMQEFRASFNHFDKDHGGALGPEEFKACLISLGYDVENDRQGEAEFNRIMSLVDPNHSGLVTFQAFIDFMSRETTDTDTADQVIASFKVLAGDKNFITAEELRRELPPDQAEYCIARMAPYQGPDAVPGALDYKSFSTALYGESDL
# No constants are given. Whether binding was seen depends on the method and setting. Some binding calls cover weakened binding; strength is not graded here. Tags and fused reporters may be left off the sequences shown.
# Columns and labels:
# [1] = target: T1, FLAG-tagged full-length zyxin (FLAG-ZYX-full, aa 1–572) (human) (UniProt Q15942); assay: pull-down; FLAG-ZYX-full or FLAG-ZYX-C bound to anti-FLAG M2 affinity gel mixed with purified His-ACTN1 or His-ACTN4, 2 h in IP buffer (20 mM Tris pH 7.4, 100 mM NaCl, 0.5% NP-40, 1 mM EDTA, 1 mM PMSF); bound ACTN detected by western blot with anti-pan-actinin antibody; both purified
# T1 sequence: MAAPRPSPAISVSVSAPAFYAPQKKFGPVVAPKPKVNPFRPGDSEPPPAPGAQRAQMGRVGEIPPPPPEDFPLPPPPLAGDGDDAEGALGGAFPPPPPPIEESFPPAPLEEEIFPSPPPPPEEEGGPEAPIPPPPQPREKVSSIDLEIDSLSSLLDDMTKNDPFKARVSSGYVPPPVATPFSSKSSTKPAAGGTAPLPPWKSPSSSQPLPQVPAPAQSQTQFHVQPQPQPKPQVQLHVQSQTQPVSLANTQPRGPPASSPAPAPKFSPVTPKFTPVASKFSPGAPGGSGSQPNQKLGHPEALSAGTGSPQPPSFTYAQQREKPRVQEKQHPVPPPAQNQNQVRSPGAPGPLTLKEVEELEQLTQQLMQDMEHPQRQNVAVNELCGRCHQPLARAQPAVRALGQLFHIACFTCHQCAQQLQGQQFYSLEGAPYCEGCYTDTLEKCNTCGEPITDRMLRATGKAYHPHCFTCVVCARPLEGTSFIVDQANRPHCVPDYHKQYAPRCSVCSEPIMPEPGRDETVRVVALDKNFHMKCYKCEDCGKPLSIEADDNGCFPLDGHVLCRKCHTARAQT
# [2] = target: T2, FLAG-ZYX-C (zyxin amino acids 52–572, N-terminal deletion mutant) (human) (UniProt Q15942); assay: as above
# T2 sequence: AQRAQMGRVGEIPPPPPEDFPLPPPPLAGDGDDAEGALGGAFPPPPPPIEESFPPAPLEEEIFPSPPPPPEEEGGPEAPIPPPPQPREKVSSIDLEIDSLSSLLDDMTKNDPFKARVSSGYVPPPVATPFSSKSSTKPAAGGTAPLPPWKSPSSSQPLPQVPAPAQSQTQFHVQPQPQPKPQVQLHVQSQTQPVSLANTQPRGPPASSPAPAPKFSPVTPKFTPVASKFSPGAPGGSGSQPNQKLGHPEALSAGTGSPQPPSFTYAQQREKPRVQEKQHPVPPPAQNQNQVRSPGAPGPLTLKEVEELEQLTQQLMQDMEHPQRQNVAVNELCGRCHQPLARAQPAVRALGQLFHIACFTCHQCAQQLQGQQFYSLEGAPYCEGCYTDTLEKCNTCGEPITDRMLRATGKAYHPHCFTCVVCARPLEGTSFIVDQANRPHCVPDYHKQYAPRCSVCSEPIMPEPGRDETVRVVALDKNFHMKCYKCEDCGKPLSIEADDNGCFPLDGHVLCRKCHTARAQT
# [3] = target: T3, GST-ZYX-N (zyxin amino acids 1–51) (human) (UniProt Q15942); assay: pull-down; GST-ZYX-N bound to Glutathione Sepharose 4B incubated with purified His-ACTN1 or His-ACTN4 for 2 h in binding buffer (lysis buffer: 40 mM Tris pH 7.5, 150 mM NaCl, 0.5% Triton X-100, 5 mM EDTA, 1 mM PMSF, plus 1.0% BSA); washed thrice; bound ACTN detected by western blot with anti-His-tag antibody; both purified
# T3 sequence: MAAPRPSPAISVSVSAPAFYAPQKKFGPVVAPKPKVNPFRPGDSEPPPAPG
Substance,binding [1],binding [2],binding [3]
His-tagged human full length α-actinin-1 (ACTN1) (from UniProt P12814 1-892),binds,no binding,binds
His-tagged human full length α-actinin-4 (ACTN4) (from UniProt O43707 1-911),no binding,no binding,no binding
